# Assay results taken from the supplement of paper PMC12217912.
# The list shows a part of the results. The full chains were built here from the parent and the listed change. Values near 0.05 are background.
# B1: TEV protease; numbered along this chain (parent)
# chain: MGESLFKGPRDYNPISSSICHLTNESDGHTTSLYGIGFGPFIITNKHLFRRNNGTLVVQSLHGVFKVKDTTTLQQHLVDGRDMIIIRMPKDFPPFPQKLKFREPQREERICLVTTNFQTKSMSSMVSDTSCTFPSGDGIFWKHWIQTKDGQCGSPLVSTRDGFIVGIHSASNFTNTNNYFTSVPKNFMELLTNQEAQQWVSGWRLNADSVLWGGHKVFMVKPEEPFQPVKEATQL
# Variants of: B1
# Experiment: raw area under fraction-flipped curve 0-4 h after induction (AUC4h, not background-subtracted), DNA-recorder readout of cleavage of the substrate (dimensionless); higher = more cleavage of the substrate by the protease variant
# Details: temperature: 34 °C; time window: 0-4 h after rhamnose induction
# Experimental: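 In vivo DNA recorder in E. coli TOP10(DE3) ΔrhaA at 34 °C. Each TEVp single-site mutant (parent TEVp 0) is paired with a single-site variant of the 7-mer TEVs (canonical ENLYFQ|S). The substrate sits between flexible linkers in a Bxb1-sfGFP-TEVs-SsrA fusion, so cleavage stabilises Bxb1 and speeds flipping of a recombination array, read by NGS. The value is the raw area under the fraction-flipped curve over 0-4 h after rhamnose induction (AUC4h), with ≥20 reads per time point. It is not background-subtracted; inactive controls average about 0.047.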
# 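Note: Bxb1 expression induced with 0.2% (w/v) L-rhamnose at OD600 near 0.5, cultures sampled hourly, flipped fraction per protease–substrate barcode pair counted by paired-end Illumina sequencing.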
Variant,area with substrate ENAYFQS,area with substrate ENCYFQS,area with substrate ENDYFQS,area with substrate ENEYFQS,area with substrate ENHYFQS,area with substrate ENIYFQS,area with substrate ENMYFQS,area with substrate ENNYFQS,area with substrate ENQYFQS,area with substrate ENRYFQS,area with substrate ENSYFQS,area with substrate ENTYFQS,area with substrate ENVYFQS,area with substrate ENWYFQS,area with substrate ENFYFQS,area with substrate ENGYFQS,area with substrate ENPYFQS,area with substrate ENYYFQS,area with substrate ENKYFQS
MGESLFKGPRDYNPISSSICHLTNESDGHTTSLYGIGFGPFIITNKHLFRRNNGTLVVQSLHGVFKVNDTTTLQQHLVDGRDMIIIRMPKDFPPFPQKLKFREPQREERICLVTTNFQTKSMSSMVSDTSCTFPSGDGIFWKHWIQTKDGQCGSPLVSTRDGFIVGIHSASNFTNTNNYFTSVPKNFMELLTNQEAQQWVSGWRLNADSVLWGGHKVFMVKPEEPFQPVKEATQL [K68N],0.0648,0.0674,0.0661,0.0583,0.0619,0.131,0.103,0.0609,0.0815,0.0721,0.0658,0.0581,0.0677,0.0518,–,–,–,–,–
MGESLFKGPRDYNPISSSICHLTNESDGHTTSLYGIGFGPFIITNKHLFRRNNGTLVVQSLHGSFKVKDTTTLQQHLVDGRDMIIIRMPKDFPPFPQKLKFREPQREERICLVTTNFQTKSMSSMVSDTSCTFPSGDGIFWKHWIQTKDGQCGSPLVSTRDGFIVGIHSASNFTNTNNYFTSVPKNFMELLTNQEAQQWVSGWRLNADSVLWGGHKVFMVKPEEPFQPVKEATQL [V64S],0.079,–,0.06,–,–,–,–,–,–,–,0.0579,–,–,–,0.0648,0.0355,0.0558,0.0836,–
MGESLFKGPRDYNPISSSICHLTNESDGHTTSLYGIGFGPFIITNKHLFRRNNGTLVVQSLHGVFKVKDTTTLQQHMVDGRDMIIIRMPKDFPPFPQKLKFREPQREERICLVTTNFQTKSMSSMVSDTSCTFPSGDGIFWKHWIQTKDGQCGSPLVSTRDGFIVGIHSASNFTNTNNYFTSVPKNFMELLTNQEAQQWVSGWRLNADSVLWGGHKVFMVKPEEPFQPVKEATQL [L77M],0.0572,0.0525,–,0.0664,0.0588,–,–,0.0721,0.0646,–,0.0612,0.0622,0.0608,–,0.0757,0.0582,0.0643,0.061,–
MGESLFKGPRDYNPISSSICHLTNESDGHTTSLYGIGFGPFIITNKHLFRRNNGTLVVQSLHGVFKVKDTTTLQQHLVDFRDMIIIRMPKDFPPFPQKLKFREPQREERICLVTTNFQTKSMSSMVSDTSCTFPSGDGIFWKHWIQTKDGQCGSPLVSTRDGFIVGIHSASNFTNTNNYFTSVPKNFMELLTNQEAQQWVSGWRLNADSVLWGGHKVFMVKPEEPFQPVKEATQL [G80F],0.065,0.0724,0.0612,0.0593,–,–,0.0634,0.0457,–,0.0804,0.0618,0.0717,0.0629,0.0472,–,0.0729,–,–,0.0875
MGESLFKGPRDYNPISSSICHLTNESDGHTTSLYGIGFGPFIITNKHLFRRNNGTLVVQSLHGVFKVKMTTTLQQHLVDGRDMIIIRMPKDFPPFPQKLKFREPQREERICLVTTNFQTKSMSSMVSDTSCTFPSGDGIFWKHWIQTKDGQCGSPLVSTRDGFIVGIHSASNFTNTNNYFTSVPKNFMELLTNQEAQQWVSGWRLNADSVLWGGHKVFMVKPEEPFQPVKEATQL [D69M],0.0524,–,0.0566,0.0677,–,0.0973,–,0.0625,0.0532,0.0441,–,–,–,–,0.0559,–,–,–,0.0649
MGESLFKGPRDYNPISSSICHLTNESDGHTTSLYGIGFGPFIITNKHLFRRNNGTLVVQSLHGVFKVKDVTTLQQHLVDGRDMIIIRMPKDFPPFPQKLKFREPQREERICLVTTNFQTKSMSSMVSDTSCTFPSGDGIFWKHWIQTKDGQCGSPLVSTRDGFIVGIHSASNFTNTNNYFTSVPKNFMELLTNQEAQQWVSGWRLNADSVLWGGHKVFMVKPEEPFQPVKEATQL [T70V],0.076,0.0543,–,0.0677,0.0538,0.0715,0.0756,–,–,0.0843,–,0.0598,0.0733,–,0.0643,–,0.0827,0.0627,–
MGESLFKGPRDYNPISSSICHLTNESDGHTTSLYGIGFGPFIITNKHLFRRNNGTLVVQSLHGVFKVKDYTTLQQHLVDGRDMIIIRMPKDFPPFPQKLKFREPQREERICLVTTNFQTKSMSSMVSDTSCTFPSGDGIFWKHWIQTKDGQCGSPLVSTRDGFIVGIHSASNFTNTNNYFTSVPKNFMELLTNQEAQQWVSGWRLNADSVLWGGHKVFMVKPEEPFQPVKEATQL [T70Y],0.0688,0.0622,0.0539,0.0675,0.0646,0.0665,–,0.0637,0.0561,0.0491,0.0665,0.0725,0.0464,0.005,0.0544,0.0658,0.0491,–,–
MGESLFKGPRDYNPISSSICHLTNESDGHTTSLYGIGFGPFIITNKHLFRRNNGTLVVQSLHGVFKVKDTTTLQQHLKDGRDMIIIRMPKDFPPFPQKLKFREPQREERICLVTTNFQTKSMSSMVSDTSCTFPSGDGIFWKHWIQTKDGQCGSPLVSTRDGFIVGIHSASNFTNTNNYFTSVPKNFMELLTNQEAQQWVSGWRLNADSVLWGGHKVFMVKPEEPFQPVKEATQL [V78K],0.0457,0.0597,0.0593,0.0523,0.0506,–,0.0535,0.0636,0.0437,–,0.0631,0.034,0.0604,0.0409,0.0512,–,0.0498,0.0398,–
MGESLFKGPRDYNPISSSICHLTNESDGHTTSLYGIGFGPFIITNKHLFRRNNGTLVVQSLHGVFKVKDTTTLQQHLMDGRDMIIIRMPKDFPPFPQKLKFREPQREERICLVTTNFQTKSMSSMVSDTSCTFPSGDGIFWKHWIQTKDGQCGSPLVSTRDGFIVGIHSASNFTNTNNYFTSVPKNFMELLTNQEAQQWVSGWRLNADSVLWGGHKVFMVKPEEPFQPVKEATQL [V78M],0.0556,0.0546,0.0482,0.0583,–,–,0.0799,0.063,0.0426,0.0519,0.054,–,0.0701,–,0.0622,0.0537,0.0928,–,0.0536
